Source: PubChem BioAssay (NCATS)
Inconclusive results, whose numbers are uncertain, are shown with a selection of clear calls. Calls of active or inactive are those of the source. The call rests on the fitted dose curve; in most records, active means well fitted curve in either direction with a large enough effect (not every such curve was filed as active); inconclusive means small, poorly fitted or top-dose-only effect, or another doubt; inactive means flat fitted curve, though single readings scatter.

Test: NFAT Signaling Pathway (AID 444);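 further: carbachol stimulus at about its EC50 of 1 µM final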
Conditions: Jurkat NFAT-bla M1, carbachol, beta-lactamase ratio, 5 h; at 17.2 µM (top of the series) unless noted
Outline: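 Jurkat cells carrying an NFAT-driven β-lactamase reporter and co-transfected muscarinic M1 receptor were treated with compound plus carbachol (1 uM final, an EC50 level) for 5 h at 37 °C. CCF4 loading followed for 1 h at RT; 460/530 nm ratio gave %activity.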
On the % scale 0 is the no-effect control and ±100 the full control effect.

| Structure (SMILES) | activity change, negative = inhibition |
| --- | --- |
| Cc1ccc(S(=O)(=O)c2cc3c(=O)n4cccc(C)c4nc3n(CC3CCCO3)c2=N)cc1 (configuration not stated) | inconclusive: -32.4% [inhibitor] |
| O=C(c1csnn1)N1CCC2(CCCN(c3ccncc3)C2)CC1 | inconclusive: -62.6% [inhibitor] [at 7.69 µM] |
| Cc1ccc(-n2c(=O)c3c4c(sc3n3c(C)nnc23)COC(C(C)C)C4)cc1 (configuration not stated) | inconclusive: -39.4% [inhibitor] |
| CN(C)CCSS(=O)(=O)O | inactive: 5.08% [at 7.69 µM] |
| Cn1c(OCc2cccnc2)nc2c1c(=O)n(Cc1ccc(Br)cc1)c(=O)n2C | inconclusive: -49.2% [inhibitor] |
| COCC(=O)N1CCC2(CCCN(Cc3ccccc3)C2)CC1 | inconclusive: -63% [inhibitor] [at 7.69 µM] |
| N[C@@H](Cc1cccnn1)C(=O)O | inconclusive: 13.1% [activator] [at 7.69 µM] |
| C=CCNc1nnc(SC2CC(=O)N(c3ccc(OC)cc3)C2=O)s1 (configuration not stated) | inconclusive: -67.3% [inhibitor] |
| N#Cc1nc(COc2ccccc2Cl)oc1NCc1ccc(F)cc1 | inconclusive: -33.1% [inhibitor] |
| COc1ccc(C(=O)N2CCC3(CCCN(Cc4ccc(C#N)cc4)C3)CC2)cc1 | inconclusive: -64.9% [inhibitor] [at 7.69 µM] |
| CC(C)CN1CC2(CCN(C(=O)c3csnn3)CC2)C1 | inconclusive: -45.4% [inhibitor] [at 7.69 µM] |
| COC(=O)CSc1nc2sc3c(c2c(=O)n1C1CCCCC1)CCN(C)C3 | inconclusive: -64.7% [inhibitor] |
